± gives the standard deviation of the averaged measurements. Growth of baker's yeast expressing single-residue variants of Pneumocystis jirovecii dihydrofolate reductase in 8.8 or 44 µM methotrexate (about 75% and 90% inhibition of the wild type). Selection coefficient per generation; 0 = like wild type, above 0 = less sensitive, below 0 = more sensitive or loss of function. No active / inactive call per row; the paper calls resistant above 0.220 (8.8 µM) or 0.243 (44 µM) together with a significance test. At 44 µM about 15% of codons end with one read or none, so the lowest values are floors (replicate rank correlation 0.74; 0.94 at 8.8 µM).
B1: UniProt A0EPZ9; numbered along this chain (parent)
chain: MDWQKSLTLIVALTLSRGIGLKNDLPWKLKSDMMFFSRVTSGLLVTRSTGQMNVVLMGRKTWESLPAHSRPLKNRINVVISRQEVLDLGGGAYHARSLDDALALLSQIYDSTSKIQLNRVFVIGGGELCKAAMEHSRLNRIIATVIHNEVDCDVFFPIDFRSSQSCLPWRKQDHSVLEAWVGSKVPQGKINENGFIYEFEMWIRDI

Variants of: B1
Experiment: selection coefficient against synonymous wild-type codons (log2 per generation); higher = faster growth than wild type
Details: with Saccharomyces cerevisiae carrying the variant on a plasmid
Method: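 Pooled growth of yeast carrying single-residue variants of P. jirovecii dihydrofolate reductase (own DFR1 gene intact), two passages at 30 °C, three cultures, sequenced before and after. Codons with under 15 starting reads are left out; codons of one change are averaged.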

| Variant | selection coefficient against synonymous wild-type codons (log2) (methotrexate 8.8 µM) | selection coefficient against synonymous wild-type codons (log2) (methotrexate 44 µM) |
| --- | --- | --- |
| L86K | 0.082 ± 0.035 | 0.0316 ± 0.065 |
| L86M | -0.0915 ± 0.032 | -0.131 ± 0.24 |
| L86N | 0.0183 ± 0.021 | -0.0983 ± 0.14 |
| L86P | 0.0299 ± 0.056 | 0.0196 ± 0.13 |
| L86Q | -0.0315 ± 0.012 | -0.305 ± 0.12 |
| L86R | -0.03 ± 0.035 | 0.0415 ± 0.42 |
| L86S | 0.0164 ± 0.041 | -0.0568 ± 0.15 |
| L86T | -0.00557 ± 0.04 | -0.0809 ± 0.12 |
| L86V | -0.138 ± 0.045 | -0.183 ± 0.11 |
| L86W | -0.495 ± 0.072 | -0.223 ± 0.26 |
| L86Y | -0.245 ± 0.045 | -0.296 ± 0.045 |
| D87A | -0.275 ± 0.041 | -0.194 ± 0.17 |
| D87C | -0.346 ± 0.032 | -0.181 ± 0.061 |
| D87E | -0.0712 ± 0.046 | 0.0638 ± 0.12 |
| D87F | -0.454 ± 0.067 | -0.23 ± 0.059 |
| D87G | -0.259 ± 0.028 | -0.183 ± 0.093 |
| D87H | -0.171 ± 0.022 | -0.192 ± 0.16 |
| D87I | -0.733 ± 0.034 | -0.143 ± 0.11 |
| D87K | -0.198 ± 0.1 | -0.0213 ± 0.44 |
| D87L | -0.493 ± 0.15 | -0.278 ± 0.068 |
| D87M | -0.45 ± 0.016 | -0.244 ± 0.03 |
| D87N | -0.0858 ± 0.052 | -0.024 ± 0.034 |
| D87P | -0.199 ± 0.085 | -0.208 ± 0.14 |
| D87Q | -0.207 ± 0.068 | -0.142 ± 0.14 |

| Variant | selection coefficient against synonymous wild-type codons (log2) (methotrexate 8.8 µM) | selection coefficient against synonymous wild-type codons (log2) (methotrexate 44 µM) |
| --- | --- | --- |
| D87R | -0.348 ± 0.088 | -0.214 ± 0.085 |
| D87S | -0.251 ± 0.043 | -0.291 ± 0.087 |
| D87T | -0.291 ± 0.04 | -0.0627 ± 0.43 |
| D87V | -0.328 ± 0.076 | -0.196 ± 0.16 |
| D87W | -0.579 ± 0.077 | -0.302 ± 0.034 |
| D87Y | -0.39 ± 0.055 | -0.0682 ± 0.38 |
| L88A | -0.386 ± 0.097 | -0.235 ± 0.065 |
| L88C | -0.233 ± 0.034 | -0.234 ± 0.19 |
| L88D | -0.495 ± 0.046 | -0.314 ± 0.047 |
| L88E | -0.384 ± 0.14 | -0.259 ± 0.042 |
| L88F | -0.313 ± 0.054 | -0.07 ± 0.12 |
| L88G | -0.479 ± 0.12 | -0.202 ± 0.051 |
| L88H | -0.382 ± 0.075 | -0.282 ± 0.075 |
| L88I | -0.364 ± 0.12 | -0.211 ± 0.12 |
| L88K | -0.491 ± 0.049 | -0.232 ± 0.057 |
| L88M | -0.384 ± 0.059 | -0.333 ± 0.058 |
| L88N | -0.315 ± 0.047 | -0.252 ± 0.044 |
| L88P | -0.184 ± 0.05 | -0.169 ± 0.12 |
| L88Q | -0.478 ± 0.16 | -0.282 ± 0.065 |
| L88R | -0.581 ± 0.12 | -0.172 ± 0.076 |
| L88S | -0.452 ± 0.051 | -0.324 ± 0.065 |
| L88T | -0.0528 ± 0.046 | -0.0676 ± 0.092 |
| L88V | -0.0702 ± 0.044 | -0.101 ± 0.18 |
| L88W | -0.61 ± 0.1 | -0.194 ± 0.041 |

| Variant | selection coefficient against synonymous wild-type codons (log2) (methotrexate 8.8 µM) | selection coefficient against synonymous wild-type codons (log2) (methotrexate 44 µM) |
| --- | --- | --- |
| L88Y | -0.51 ± 0.06 | -0.347 ± 0.065 |
| G89A | -0.17 ± 0.025 | -0.186 ± 0.14 |
| G89C | -0.179 ± 0.048 | -0.109 ± 0.04 |
| G89D | -0.00991 ± 0.058 | -0.0127 ± 0.057 |
| G89E | 0.0552 ± 0.018 | 0.113 ± 0.089 |
| G89F | -0.61 ± 0.24 | -0.264 ± 0.0049 |
| G89H | -0.144 ± 0.028 | -0.0435 ± 0.021 |
| G89I | -0.638 ± 0.039 | -0.29 ± 0.061 |
| G89K | -0.0384 ± 0.044 | -0.0382 ± 0.084 |
| G89L | -0.687 ± 0.1 | -0.242 ± 0.073 |
| G89M | -0.436 ± 0.11 | -0.303 ± 0.054 |
| G89N | -0.0826 ± 0.017 | -0.0872 ± 0.068 |
| G89P | 0.082 ± 0.024 | 0.12 ± 0.0037 |
| G89Q | -0.0658 ± 0.022 | 0.0143 ± 0.049 |
| G89R | -0.178 ± 0.092 | -0.0933 ± 0.25 |
| G89S | -0.139 ± 0.032 | -0.18 ± 0.035 |
| G89T | -0.187 ± 0.053 | -0.21 ± 0.13 |
| G89V | -0.34 ± 0.053 | -0.197 ± 0.11 |
| G89W | -0.523 ± 0.032 | -0.204 ± 0.16 |
| G89Y | -0.379 ± 0.0044 | -0.333 ± 0.048 |
| G90A | -0.0254 ± 0.017 | 0.00965 ± 0.15 |
| G90C | -0.168 ± 0.059 | -0.256 ± 0.095 |
| G90D | 0.0971 ± 0.04 | 0.151 ± 0.04 |
| G90E | 0.0998 ± 0.0053 | 0.158 ± 0.0046 |

| Variant | selection coefficient against synonymous wild-type codons (log2) (methotrexate 8.8 µM) | selection coefficient against synonymous wild-type codons (log2) (methotrexate 44 µM) |
| --- | --- | --- |
| G90F | -0.249 ± 0.03 | -0.253 ± 0.081 |
| G90H | -0.0601 ± 0.012 | -0.0543 ± 0.053 |
| G90I | -0.319 ± 0.071 | -0.206 ± 0.16 |
| G90K | -0.0476 ± 0.043 | -0.145 ± 0.12 |
| G90L | -0.354 ± 0.12 | -0.173 ± 0.17 |
| G90M | -0.245 ± 0.072 | -0.23 ± 0.14 |
| G90N | -0.0583 ± 0.02 | -0.0575 ± 0.077 |
| G90P | 0.0626 ± 0.036 | 0.104 ± 0.071 |
| G90Q | -0.0268 ± 0.024 | -0.0101 ± 0.045 |
| G90R | -0.177 ± 0.097 | -0.114 ± 0.14 |
| G90S | -0.0972 ± 0.055 | -0.124 ± 0.1 |
| G90T | -0.139 ± 0.066 | -0.138 ± 0.042 |
| G90V | -0.187 ± 0.069 | -0.0794 ± 0.15 |
| G90Y | -0.215 ± 0.026 | -0.173 ± 0.22 |
| G91A | 0.0344 ± 0.057 | 0.0408 ± 0.13 |
| G91C | -0.0303 ± 0.011 | 0.0315 ± 0.053 |
| G91D | 0.0933 ± 0.059 | 0.162 ± 0.083 |
| G91E | 0.162 ± 0.035 | 0.237 ± 0.041 |
| G91F | -0.143 ± 0.092 | -0.117 ± 0.19 |
| G91H | 0.0784 ± 0.015 | 0.132 ± 0.079 |
| G91I | -0.153 ± 0.034 | 0.0107 ± 0.073 |
| G91K | 0.0892 ± 0.04 | 0.175 ± 0.026 |
| G91L | 0.0798 ± 0.023 | 0.144 ± 0.08 |
| G91M | 0.102 ± 0.03 | 0.154 ± 0.065 |

| Variant | selection coefficient against synonymous wild-type codons (log2) (methotrexate 8.8 µM) | selection coefficient against synonymous wild-type codons (log2) (methotrexate 44 µM) |
| --- | --- | --- |
| G91N | 0.0391 ± 0.064 | 0.114 ± 0.13 |
| G91P | -0.409 ± 0.095 | -0.176 ± 0.096 |
| G91Q | 0.175 ± 0.049 | 0.287 ± 0.053 |
| G91R | -0.0267 ± 0.027 | 0.105 ± 0.34 |
| G91S | -0.0295 ± 0.054 | -0.0113 ± 0.088 |
| G91T | -0.0614 ± 0.07 | -0.11 ± 0.12 |
| G91V | -0.0699 ± 0.019 | -0.0807 ± 0.13 |
| G91W | -0.319 ± 0.07 | -0.219 ± 0.084 |
| G91Y | -0.0983 ± 0.039 | -0.113 ± 0.15 |
| A92C | -0.176 ± 0.06 | -0.199 ± 0.16 |
| A92D | -0.255 ± 0.092 | 0.0482 ± 0.18 |
| A92E | -0.182 ± 0.036 | -0.327 ± 0.12 |
| A92F | -0.5 ± 0.072 | -0.327 ± 0.094 |
| A92G | -0.4 ± 0.1 | -0.237 ± 0.11 |
| A92H | -0.572 ± 0.15 | -0.197 ± 0.061 |
| A92I | -0.61 ± 0.059 | -0.381 ± 0.032 |
| A92K | -0.539 ± 0.1 | -0.106 ± 0.062 |
| A92L | -0.728 ± 0.091 | -0.281 ± 0.087 |
| A92M | -0.566 ± 0.12 | -0.287 ± 0.019 |
| A92N | -0.419 ± 0.03 | -0.0746 ± 0.065 |

Reference: the supplement of paper PMC11125491
